# Test results taken from paper PMC6919601, “Identification of Plasmodium dipeptidyl aminopeptidase allosteric inhibitors by high throughput screening” (PLoS ONE, 2019).
# About 230 (0.21%) of roughly 110,000 compounds showed an effect of 50% or more. Some of the results follow.
# Target: DPAP1 (Plasmodium falciparum, UniProt Q8IIJ9)
# Test: primary screen, percent inhibition; read by cleavage of a fluorogenic dipeptide substrate; higher = more effect of the substance
# Design: species or system P. falciparum D10 trophozoite lysates; single well
# 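Note: 30 min substrate incubation versus DMSO and 10 µM JCP410 controls.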
# Sequence of DPAP1 (Q8IIJ9 whole entry, looked up): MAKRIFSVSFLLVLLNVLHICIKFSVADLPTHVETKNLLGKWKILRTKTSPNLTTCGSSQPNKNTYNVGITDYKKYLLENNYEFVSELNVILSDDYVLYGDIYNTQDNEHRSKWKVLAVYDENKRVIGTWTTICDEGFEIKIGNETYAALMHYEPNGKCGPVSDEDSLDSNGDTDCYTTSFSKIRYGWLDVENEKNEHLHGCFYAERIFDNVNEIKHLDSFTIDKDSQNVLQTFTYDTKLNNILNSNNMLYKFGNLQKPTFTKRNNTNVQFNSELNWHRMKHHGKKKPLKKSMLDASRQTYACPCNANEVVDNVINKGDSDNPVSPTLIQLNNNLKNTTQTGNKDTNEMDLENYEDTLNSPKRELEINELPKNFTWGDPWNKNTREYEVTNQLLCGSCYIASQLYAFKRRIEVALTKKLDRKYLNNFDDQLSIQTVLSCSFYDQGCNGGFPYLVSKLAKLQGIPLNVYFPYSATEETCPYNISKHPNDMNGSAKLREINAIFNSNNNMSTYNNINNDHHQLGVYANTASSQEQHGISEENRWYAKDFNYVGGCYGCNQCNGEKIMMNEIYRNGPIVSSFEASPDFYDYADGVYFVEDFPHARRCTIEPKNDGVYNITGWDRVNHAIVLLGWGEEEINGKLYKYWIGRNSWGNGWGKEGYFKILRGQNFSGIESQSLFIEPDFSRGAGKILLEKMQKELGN
row,Structure (SMILES),% Inhibition @ 10 uM
1,CCc1ccc(Oc2nc3c(C)cccn3c(=O)c2/C=C(\C#N)C(=O)NCc2ccco2)cc1,-3.23%
2,CCCCC(NC(=O)c1ccc(F)cc1)c1nc2ccccc2[nH]1 (stereo not shown),6.64%
3,Fc1ccc(N2CCN(C3CCSC3)CC2)cc1 (stereo not shown),-3.6%
4,Cc1nc2c3cc(F)ccc3n(C)c2s1,3.73%
5,CCCCc1c(O)nc2ccc(C)cc2c1C,1%
6,COc1ccc(-c2nnc(-c3ccc(Cl)cc3)o2)cc1OC,-0.833%
7,CC(=O)C1=C(C)NC(=O)NC1c1cc(Br)ccc1OCC#N (stereo not shown),-4.76%
8,CCOc1ccc2nc(NC(=O)C3CCCN(S(=O)(=O)c4c(C)nc(O)nc4O)C3)sc2c1 (stereo not shown),-0.0508%
9,CC(CCN(C)C)OC(=O)c1ccc(C(C)c2ccccc2)o1 (stereo not shown),2.3%
10,COC(=O)c1cnc2c(C(F)(F)F)cccc2c1OC,-7.35%
11,Cc1ccc(CSCc2ccc(C(=O)NC3CCCC3)o2)cc1,6.86%
12,COc1ccc(CC(=O)Nc2ccc(S(N)(=O)=O)cc2)cc1,1.94%
13,CC(C)CNc1ncnc2sc3c(c12)CCCC3,13.5%
14,OC1CCN(CC(O)CC(O)(c2ccc(Cl)cc2)c2ccc(Cl)cc2)CC1 (stereo not shown),2.02%
15,CCOc1ccccc1/C=C1\N=C(c2ccco2)OC1=O,7.28%
16,O=S(=O)(c1ccc(OCCn2cnnn2)cc1)N1CCOCC1,-5.96%
17,COc1cc(CN2CCC(C)CC2)ccc1OCc1ccccc1,-5.26%
18,N#Cc1c(SCc2ccccc2)nc(N2CCOCC2)c2c1CCCC2,-2.87%
19,Cc1ccc(OCCCCN2CCOCC2)cc1C,-9.96%
20,Clc1ccc(CCC2CCNCC2)cc1,-3.75%
21,Cc1cccc(-c2noc(CN(C(=O)COc3ccc(Br)c(C)c3)C(C)C)n2)c1,-0.0593%
22,O=C(O)c1[nH]c2ccccc2c1CNC1CCCCCC1,1.93%
23,COc1ccc(C(=O)N2CCN(Cc3ccc(OC)c(OC)c3OC)CC2)cc1OC,0.218%
24,O=C(/C=C/c1ccccc1Cl)Nc1ccc2c(c1)OCO2,-3.94%
25,CCOC(=O)c1oc2ccc3nc(N(C)C)sc3c2c1C,-1.37%
26,O=C(O)CSc1cc(Cl)ccc1Cl,6.15%

row,Structure (SMILES),% Inhibition @ 10 uM
1,N#Cc1c(N)nc2c(c1-c1ccc(F)cc1)CCCCC2,6.66%
2,CSc1ccc(NC(=O)N2CC(C)C(c3ccc(SC)cc3)=N2)cc1 (stereo not shown),-3.46%
3,COc1ccc2cc(S(=O)(=O)N3CCN(C)CC3)ccc2c1,19.4%
4,O=C(Cc1csc(Nc2nc(S)nc3ccccc23)n1)NCCc1ccc(Cl)cc1,8.5%
5,COc1ccccc1-n1c(CNC(=O)c2ccccc2)nnc1SCC(=O)Nc1nnc(C)s1,-1.3%
6,CCCCO/C(O)=C1\C(C)=NC2=C(C(=O)CCC2)C1c1cccc(OC)c1 (stereo not shown),0.736%
7,CCC(C)NC(=O)CCn1c(=O)c2cccn2c2cccnc21 (stereo not shown),-4.51%
8,CN1CCN(CCCNC(=O)c2ccc3c(Cl)c4c(nc3c2)CCCC4)CC1,-0.0593%
9,CCC1(C)OC(=O)N(CCc2c(C)[nH]c3ccccc23)C1(C)O (stereo not shown),-5.87%
10,CCOC(=O)c1cc(C)n(-c2ccc(C(=O)NCc3ccc(Cl)cc3)cc2)c1C,-1.41%
11,CC(NC(=O)NC(C(F)(F)F)C(F)(F)F)c1ccccc1 (stereo not shown),-2.44%
12,O=C(/C=C/c1cccc(Cl)c1)c1ccccn1,0.135%
13,CN(CC1CCCCC1)CC(O)c1ccccc1 (stereo not shown),-1.41%
14,c1cc(-c2nc3cc4sc(-c5cc[nH]n5)nc4cc3s2)[nH]n1,33.3%
15,O=C(NCC1CCCO1)C1CCN(c2nnc(-n3cccc3)s2)CC1 (stereo not shown),-2.25%
16,CCOC(=O)C1=CN(C)C=C(C(=O)OCC)C1c1cccc(OCC)c1,1.86%
17,CC(=O)N1CCC(N(CCCOC(C)C)S(=O)(=O)c2ccc(C(C)(C)C)cc2)CC1,3.66%
18,O=C(O)c1cc(-c2cccs2)nc2cc3c(cc12)OCCO3,-0.0508%
19,CCOc1cc(C2c3c(-c4ccccc4O)n[nH]c3C(=O)N2Cc2ccco2)ccc1O (stereo not shown),52.6%
20,N#Cc1nc2c(-c3nc4ccccc4s3)c(N)n(-c3ccc(Cl)cc3)c2nc1C#N,-1.81%
21,O=C(c1cccs1)n1nc(-c2ccccc2)nc1NCc1ccccc1Cl,-2.91%
22,Nc1c(C(=O)Nc2cnc3ccccc3c2)sc2nc3c(cc12)CCCCC3,3.21%
23,NC(=O)c1cc2cc(Br)ccc2oc1=O,5.29%
24,Cc1cc(C)c(C#N)c(SCC(N)=O)n1,27.9%
25,C#CCSc1nc2c(c(=O)n1-c1ccc(C)cc1)C1(CCCCC1)Cc1ccccc1-2,-1.99%
26,CCCCNC(=O)C1CCCN(c2nnc(C)c3c(C)n(-c4ccc(C)cc4)nc23)C1 (stereo not shown),3.74%

row,Structure (SMILES),% Inhibition @ 10 uM
1,COc1cc(C)c(CNc2ccccc2F)cc1C,-2.02%
2,NC(=O)COc1ccc(C2c3c(oc4ccccc4c3=O)C(=O)N2Cc2ccc3c(c2)OCO3)cc1 (stereo not shown),-1.33%
3,Cc1ccc(Cl)cc1NC(=O)CC1S/C(=N\c2ccccc2)N(C)C1=O (stereo not shown),4.56%
4,COc1ccc(Cn2c(=O)c(C#N)cc3c(=O)n4cccc(C)c4nc32)cc1,2.54%
5,CCc1nc(S)c(C#N)c(C(F)(F)F)c1C,74.2%
6,Cc1cccc(OCCCCN2CCOCC2)c1C,-4.08%
7,O=[N+]([O-])c1ccccc1CSc1nc2ccccc2[nH]1,6.43%
8,Cc1ccc(S(=O)(=O)N2CCCN(S(=O)(=O)c3ccc(C)c(C)c3)CC2)cc1C,22.6%
9,COc1ccc(CCC(=O)Nc2nc(-c3ccccc3)cs2)cc1,-0.766%
10,COc1cccc(NC(=O)c2ccc(OC)c(OC)c2)c1,-1.25%
11,COc1ccccc1N1CCN(Cc2ccc(F)cc2)CC1,-3.72%
12,CCCCOc1ccc(C(=O)Nc2cccc(C(=O)OCC(=O)c3ccccc3)c2)cc1,-1.77%
13,CCC(C)NC(=O)Cn1cccc1C(=O)c1ccccc1 (stereo not shown),4.33%
14,Cc1ccc(C(=O)NC(C(N)=O)C23CC4CC(CC(C4)C2)C3)cc1 (stereo not shown),2.86%
15,O=C([C@H](Cc1ccccc1)N1Cc2ccccc2C1=O)N1CCCC1,-0.465%
16,O=C(O)c1cccc(NC(=O)c2ccco2)c1,-5.35%
17,CCc1ccc(CNCc2c(C(=O)O)n(Cc3ccc(F)cc3)c3cc(C)ccc23)cc1,-1.53%
18,COc1ccc(O)c(-c2cc(C(F)(F)C(F)F)nc(-c3ccccc3)n2)c1,-3.41%
19,Cc1ccc(Oc2nc3c(C)cccn3c(=O)c2/C=C(\C#N)S(=O)(=O)c2ccccc2)c(C)c1,2%
20,CCOC(=O)N1CCN(Cc2nc3c(c(=O)n(C)c(=O)n3C)n2CCCO)CC1,-1.43%
21,CCN(CC)CC#CCC(OC)(c1ccccc1)c1ccccc1,-7.7%
22,CCc1ccccc1N(CC(=O)Nc1ccccc1)S(=O)(=O)c1ccccc1,-17.7%
23,COc1ccccc1-n1c(S)nnc1-c1cn(C)nc1C,2.32%
24,Cc1ccc(S(=O)(=O)NC(C)C(=O)Nc2cc(C(F)(F)F)ccc2Cl)cc1 (stereo not shown),-5.46%
25,COc1nonc1NC(=O)CCCCCN1C(=O)c2ccccc2C1=O,-2.54%
26,O=C(Cn1c(=O)sc2ccccc21)Nc1cccc(F)c1,-10%

row,Structure (SMILES),% Inhibition @ 10 uM
1,CCCCOc1nc(N)nc(CC)n1,3.98%
2,Cc1ccccc1C1CC(=O)NC2=C1C(=O)CC(C)(C)C2 (stereo not shown),-4.53%
3,O=C(NCc1ccccn1)c1ccc2nc(-c3ccco3)c(-c3ccco3)nc2c1,2.28%
4,Cc1cc(C)nc(-n2nc(C)c3c(=O)oc(C)cc32)n1,-5.2%
5,CCc1ccc(NC(=O)c2ccc3c(c2)CCN3S(C)(=O)=O)cc1,-1.28%
6,O=C(O)CC(NC(=O)c1ccco1)c1ccccc1 (stereo not shown),-4.57%
7,CCCC1=C(C(=O)OCC)C(c2ccc(Br)s2)C(C#N)=C(N)O1 (stereo not shown),-6.82%
8,CC(C)C(NC(=O)CN(c1ccccc1)S(=O)(=O)c1ccccc1)C(C)C,0.812%
9,Cn1cc(Cl)c(-c2nnc(S)n2C2CCCCC2)n1,-4.77%
10,CCCCO/C(O)=C1\C(C)=NC2=C(C(=O)CC(C)(C)C2)C1c1ccc(Cl)c(Cl)c1 (stereo not shown),-6.06%
11,COc1c2nc(C)cc(O)c2cc2c(C)c(C)n(C)c12,-2.63%
12,O=C(Nc1ccccc1Cl)c1cc2ccccc2oc1=O,0.317%
13,COc1ccc(C(=O)n2nc(-c3cccnc3)nc2NCc2cccs2)cc1OC,-3.14%
14,O=C(c1ccccc1)c1cncc(Br)c1,1.54%
15,Fc1ccc(N2CCN(CCCc3ccccc3)CC2)cc1,-7.17%
16,CCC(C)N1C(=O)S/C(=C/c2ccc(OC)cc2OC)C1=O (stereo not shown),2.27%
17,COc1cc(/C=C2\N=C(c3ccccc3F)OC2=O)cc(OC)c1OC,-0.441%
18,CCO/C(O)=C1/C(C)=Nc2nc(SCc3cccnc3)nn2C1c1ccc(Br)cc1 (stereo not shown),1.02%
19,C(#CCN1CCOCC1)CC(c1ccccc1)c1ccccc1,-8.21%
20,COc1cccc(CN2CCN(C(=O)c3c(OC)cccc3OC)CC2)c1,7.27%
21,COc1ccccc1-c1ccc(C(=O)N[C@@H](CC(C)C)C(=O)NCC#N)s1,-4.72%
22,Cc1cc(C)c(S(=O)(=O)N(C)CC(=O)NCc2ccc(Cl)cc2)c(C)c1,-1.35%
23,Cc1ccc(C(=O)N/C(=C\c2ccc(F)cc2)C(=O)Nc2ccccc2)cc1,2.24%
24,CCOC(=O)c1c(S(=O)(=O)N2CCC3(CC2)OCCO3)c(C)n(C)c1C,6.29%
25,CSc1nc2n(n1)C(c1cccs1)C1=C(O)CCCC1=N2 (stereo not shown),-1.62%
